# Results: PMC10668032
# This is one part of the list. At the low end of the ranking the order means little.
# Target: SIX1 homeodomain (reference allele) (UniProt Q15475)
# Assay: universal protein binding microarray
# Settings: Universal all-10-mer PBM (8x60K, AMADID 030236), 300 nM GST-tagged protein, Alexa Fluor 488 anti-GST; buffer, salt, pH and temperature not stated; high values mean tight binding; most listed sequences are background and not binding sites; double strand, one strand shown
row,Sequence,binding signal [E-score]
1,ACCCATGG,0.0706
2,CCCACGCG,-0.0939
3,TACGTCGA,-0.0838
4,ACTGTCTC,0.0286
5,AGCTAAGG,-0.272
6,GTTCTCAA,-0.00177
7,CACATCAA,-0.0397
8,GAATCCGA,0.188
9,AACAGATC,0.2
10,ACGTGGGA,0.00087
11,ATAGAAAT,0.0207
12,ATGTTATA,0.0232
13,ATAATGGG,0.065
14,TACCACTA,0.0147
15,AGGTCACT,-0.199
16,GGAAGATA,0.315
17,TCGGACCA,-0.0772
18,ACTACCTA,0.157
19,AGAGTCCA,-0.209
20,ATCATTGC,0.244
21,AGGGTTAG,0.037
22,AAGAGACT,-0.294
23,AACTGTTC,-0.285
24,TACTCGAA,0.152
25,AACTGCCA,-0.326

row,Sequence,binding signal [E-score]
1,ATCCAGAA,0.167
2,ATTCACAA,-0.132
3,AAAAAGAT,-0.134
4,ATAACTGC,-0.116
5,ATCTACTC,0.297
6,TATAGGGA,0.206
7,ACTAGCAC,-0.0926
8,CGCTGACA,-0.113
9,AGGCGGAC,-0.211
10,AAACTTAC,-0.0749
11,AATGCCTG,-0.0586
12,ATGGTAGC,-0.0905
13,CGCTGCAC,-0.0672
14,CACTGAGG,0.134
15,TACGCCCA,0.118
16,ACGAACGT,-0.0804
17,GCGATGAA,0.0334
18,GCATCATA,0.183
19,GTCTGGCA,-0.195
20,ATGAAGCG,-0.202
21,ATCCATAC,0.31
22,CATTTTAG,-0.201
23,TCGAAAAA,-0.1
24,CAGTAGCA,-0.0907
25,ATCCCAAG,0.191

row,Sequence,binding signal [E-score]
1,ATTGGTCC,-0.26
2,AATGGCCG,-0.166
3,ATATTGGA,0.251
4,GAATACCA,0.278
5,AATACACC,0.336
6,GGTTCAGA,0.0319
7,GCGACACC,0.412
8,AAAGGGGG,0.00365
9,CTTGGTGC,-0.161
10,AACTCCCT,-0.275
11,ACGGTTAC,-0.0244
12,AACATTAT,0.0258
13,GTGAGATA,0.388
14,CTCCAGTC,-0.0729
15,AGGATTGA,0.0145
16,GAATCAAC,0.0081
17,AGAAGAAG,-0.0978
18,ATTCTATC,0.0649
19,GCGCACAA,-0.086
20,CTTATCCA,0.186
21,CCGTGCAA,-0.0484
22,AGTAGACA,0.132
23,CCGAAGGC,-0.0959
24,GACGGGTA,0.0282
25,CCCGTTTC,-0.0423

row,Sequence,binding signal [E-score]
1,CGCCACCC,-0.122
2,CCGGAAGA,-0.0922
3,GGACGGAA,-0.191
4,AATGCCGG,-0.107
5,GACAGCAA,-0.297
6,ATACTACG,0.259
7,CGCGTCCA,0.0316
8,AAGAACCT,-0.154
9,AGATATTC,0.219
10,GAATAGAA,-0.114
11,AGAAGGTA,0.139
12,ACCCATTA,-0.0649
13,AAGACCCT,-0.105
14,AACAGTCC,-0.226
15,CTCTAGGA,-0.0825
16,ATTGCAAC,-0.11
17,AGACGAAA,-0.0371
18,CGTTTCGA,-0.0806
19,AGGCCCGA,-0.0588
20,AAAGCCAC,-0.286
21,ACGGGCGA,0.0482
22,ACCAGTTG,0.0409
23,CCGACTAC,-0.131
24,GCGCAACC,-0.128
25,GGCAGACC,-0.117

row,Sequence,binding signal [E-score]
1,AGTACTCG,0.0868
2,AACTTTCT,-0.291
3,CACCCGGG,0.182
4,CCCACGTA,0.0411
5,AGACTTTC,-0.275
6,CGAATTGA,-0.101
7,TCGATGCA,0.0817
8,CTCACCAA,-0.0385
9,ATGCCGGG,-0.0212
10,CGTCTCGC,0.167
11,AGCAATCG,-0.2
12,GTTTCCTA,-0.205
13,CCTGGACG,-0.0135
14,AATGGTCA,-0.0735
15,CCCGTTGA,-0.135
16,GAACCGTA,0.0391
17,ATATATAG,0.238
18,CCTACTGA,-0.0525
19,AAGGTTAC,-0.141
20,CACAAAGA,-0.0587
21,CATTAGAG,-0.12
22,CTGGTTGC,-0.0736
23,AATGTGGC,-0.284
24,ACGCCTAT,0.0492
25,CGGTCCCA,-0.161

row,Sequence,binding signal [E-score]
1,CACAGTCC,-0.209
2,AGGCGGGC,-0.11
3,AACTAGTA,0.0559
4,CAAACCCA,0.00758
5,ACCCTACT,0.0505
6,ACACTTCC,-0.06
7,GCGGTACA,0.139
8,CATTGGAA,-0.143
9,AATCGAAC,0.0496
10,CGGGTTTA,0.116
11,AAAGCGAG,-0.162
12,ATCGCCTG,0.206
13,GCGTTCTA,-0.184
14,TCCCAACA,0.0089
15,CACATTCC,-0.151
16,TGGACCAA,-0.269
17,AAAACGTG,-0.278
18,GCAGAAAA,-0.106
19,AGACAAGA,-0.0218
20,AGCCGGCG,-0.0212
21,AATATAAA,-0.00775
22,CAAACACA,-0.024
23,TAAGCTCA,-0.0997
24,CTAAACTC,-0.11
25,CACCCAGA,0.0878

row,Sequence,binding signal [E-score]
1,AAAGAGCT,-0.252
2,AGTGTCGC,-0.0397
3,GATAAGAA,-0.00641
4,GCATTGGA,-0.0558
5,ACATCCAC,-0.0316
6,AATGGACA,-0.0555
7,CGTCTAAC,-0.0722
8,ACGCTTCA,-0.184
9,CGAGATAC,0.381
10,CGTCACCA,-0.163
11,GCGCCGAC,-0.203
12,CGGCTCGC,-0.0991
13,AGAATTGG,-0.0851
14,CACCGGCA,0.188
15,ACGGTTTC,0.0502
16,ACTTTCTC,-0.336
17,TTTCGAAA,-0.179
18,CAGAGTAC,-0.162
19,TAGACCAA,-0.159
20,ACTGATTG,-0.145
21,CAGCTTAC,-0.0216
22,CTGAATGC,-0.355
